The campaign covered roughly 16,000 compounds. About 120 (0.75%) were called active. Inconclusive results (about 4%) are left out. Calls follow the shape of the dose curve; as a rule, active = well fitted inhibition curve with a large enough effect; inconclusive = small, poorly fitted or top-dose-only effect; inactive = no such curve, though single readings can be large or run the other way. The list shows a part of the results. Some compounds were tested as several samples or in several runs, with calls that do not always agree. Where a SMILES comes first, the peptide text is derived from it. The star is where a group is joined. X3 = NCCCC[C@@H](CN)N*
molecular target: Rap guanine nucleotide exchange factor 3 (Homo sapiens) (UniProt O95398); test: Validation qHTS for antagonist of cAMP-regulated guanine nucleotide exchange factor 3 (EPAC1); details: EPAC1 Rap1B-BODIPY-GDP exchange, fluorescence; series mostly up to 150 µM; activity change, negative = inhibition: at the top concentration; also: nearly all actives have a fitted effect of over 75% in size;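 as to activity change, negative = inhibition: plate controls were DMSO for no effect and ATA control for full effect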
How it was run: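 Nucleotide exchange followed as fluorescence loss when BODIPY-GDP leaves Rap1B (480 nm excitation, 540 nm emission), read at 5 min intervals over 30 min. Reaction: 100 nM EPAC1, 250 nM RAP1B-BODIPY-GDP, 50 uM GDP; ATA and DMSO define normalization.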
Potency is read from the fitted curve at half-maximal effect.

Sequence of UniProt O95398 (O95398 whole entry, looked up): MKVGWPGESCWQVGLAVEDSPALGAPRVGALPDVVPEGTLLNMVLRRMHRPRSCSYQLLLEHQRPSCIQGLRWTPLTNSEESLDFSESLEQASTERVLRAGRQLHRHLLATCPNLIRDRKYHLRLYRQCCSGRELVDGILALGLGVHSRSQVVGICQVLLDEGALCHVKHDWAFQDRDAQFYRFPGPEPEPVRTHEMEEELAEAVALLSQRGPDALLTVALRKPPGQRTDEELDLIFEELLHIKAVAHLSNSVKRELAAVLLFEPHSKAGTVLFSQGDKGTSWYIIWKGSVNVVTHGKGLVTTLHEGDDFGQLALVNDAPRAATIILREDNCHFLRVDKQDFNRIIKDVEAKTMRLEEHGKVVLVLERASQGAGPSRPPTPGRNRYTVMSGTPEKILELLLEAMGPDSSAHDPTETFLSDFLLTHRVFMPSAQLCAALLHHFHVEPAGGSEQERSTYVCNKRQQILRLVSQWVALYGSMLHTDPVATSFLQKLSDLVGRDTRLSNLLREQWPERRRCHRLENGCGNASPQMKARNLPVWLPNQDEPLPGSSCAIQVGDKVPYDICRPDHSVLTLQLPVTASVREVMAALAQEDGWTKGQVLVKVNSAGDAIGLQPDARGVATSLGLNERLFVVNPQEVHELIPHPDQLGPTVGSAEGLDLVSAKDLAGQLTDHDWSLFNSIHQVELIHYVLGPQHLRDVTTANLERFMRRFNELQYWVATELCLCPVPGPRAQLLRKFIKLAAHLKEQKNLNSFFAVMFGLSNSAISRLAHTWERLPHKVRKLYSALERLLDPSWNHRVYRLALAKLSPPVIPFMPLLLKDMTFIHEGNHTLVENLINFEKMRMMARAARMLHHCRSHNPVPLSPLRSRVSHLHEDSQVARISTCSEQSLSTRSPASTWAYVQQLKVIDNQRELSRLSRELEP

Activity change, negative = inhibition, inactive:
CCCCCCCCOc1ccc(C(=O)c2ccccc2)c(O)c1 9.29%, CCN(CC)C(=O)[C@]1(c2ccccc2)C[C@@H]1CN 10.9%, NC1CONC1=O (stereo unspecified), COC(=O)C[C@](O)(CCCC(C)(C)O)C(=O)O[C@@H]1C(OC)=C[C@]23CCCN2CCc2cc4c(cc2[C@H]13)OCO4 7.94%, CCCS(=O)(=O)NCc1c(C)ncc2c1CCN(C(=O)c1cccc(C(F)(F)F)c1)C2 -0.911%, Clc1ccc(/C=C/c2ccnc3ccccc23)c(Cl)c1 22.5%, COc1ccc2cc(CNCc3nonc3C)c(N3CCCC(CO)C3)nc2c1 (stereo unspecified) -23.4%, CCCCCCCCCCCCCCCCCCc1ccc(C(=O)/C=C/C(=O)O)cc1 33.4% [at 201 µM], COC(=O)C1[C@H]2SC(C)(C)C(C(=O)OC)N2C(=O)N1Cc1ccccc1 (stereo partly specified) 6.53%, CC[C@H](CC[C@@H](C)C1CC[C@H]2[C@@H]3CC=C4C[C@@H](O)CC[C@]4(C)[C@H]3CC[C@]12C)C(C)C (stereo partly specified) 10.3%, COC(=O)/C=C/C(C)=C/C=C/C(C)=C/C=C/C=C(C)/C=C/C=C(C)/C=C/C(=O)O 6.15%, O=C(CCN1Cc2ccccc2OC(c2ccccc2F)C1)N1CCC(N2CCCC(O)C2)CC1 (stereo unspecified) 1.97%, COc1ccc(Oc2ncc3nc(-c4cn(C)c5ccccc45)c(=O)n(CCC#N)c3n2)cc1 -19.9%, Cc1cnc(CNc2ncncc2-c2ccc(C(=O)N(C)C)cc2)cn1 2.62%, CCCCN=C(N)N=C(N)N 10.2%, CS(=O)(=O)N1CCC2(CCCN(c3ccccn3)C2)CC1 13.1%, COc1ccc(CN2CCOc3ccc(CN4CCCCC4CO)cc3C2)c(OC)c1 (stereo unspecified) 1.71%, COc1cccc(Cn2c(=O)cnc3cnc(N4CCN(C)CC4)nc32)c1 6.93%, Cc1cnc(CNc2nc(-c3ccc(N(C)C)cc3)nc3ccccc23)cn1 -5.65%, COc1c(N2C[C@@H]3CCCN[C@H]3C2)c(F)cc2c(=O)c(C(=O)O)cn(C3CC3)c12, CCCN(CCC)CCc1cccc2c1CC(=O)N2, N=C(N)c1ccc(N)cc1 -13.3% [at 75.8 µM], CCNc1ncc2nc(CCc3ccccc3)c(=O)n(Cc3ccc(F)cc3)c2n1 20.8%, Cc1noc(C)c1C(=O)N1CCC[C@@]2(CCN(C(=O)Nc3cccc(F)c3)C2)C1 20.5%, C/C=C/c1ccc(OC)cc1, N[C@@H](Cn1ccc(=O)n(Cc2ccccc2C(=O)O)c1=O)C(=O)O -16.5%, CC(=O)OC1CC(OC(C)=O)[C@]2(C)C(CC(OC(C)=O)[C@]3(C)C2CC[C@@]2(C)C(c4ccoc4)OC(=O)C4O[C@]432)C1(C)C (stereo partly specified) -10.6%, C=C1C2CC[C@]3(CCC4[C@@]5(C)CCC[C@@]4(CN(CCO)C5)[C@@H]3C2)[C@@H]1O (stereo partly specified) 12.9%, CC(C(=O)O)C1CCC2C3CC=C4CC(O)CC[C@@]4(C)C3CC[C@]12C (stereo partly specified) 13.2%, Cn1c(=O)c(-c2cccs2)nc2cnc(N3CCOCC3)nc21 6.17%, C[C@H](NC(=O)CNC(=O)[C@@H](NC(=O)[C@H](Cc1ccccc1)NC(=O)CNC(=O)CNC(=O)[C@@H](N)Cc1ccccc1)[C@@H](C)O)C(=O)N[C@@H](CCCN=C(N)N)C(=O)N[C@@H](CCCCN)C(=O)N[C@@H](CO)C(=O)N[C@@H](C)C(=O)N[C@@H](CCCN=C(N)N)C(=O)N[C@H](CN)CCCCN (H-FGGFTGARKSAR-X3) 11.7% [at 15.3 µM], CCN1CCCC1CNC(=O)c1cnn(-c2ncc(C)c(-c3ccc(F)cc3)n2)c1C(C)C (stereo unspecified) 18.3%, CCCCC[C@H](O)/C=C/[C@H]1[C@H](O)CC(=O)[C@@H]1C/C=C\CCCC(=O)O 13.9%, COc1cccc(Nc2ncc3nc(-c4cccs4)c(=O)n(-c4ccccc4)c3n2)c1 158%, Cc1cccc(CNc2ncnc3ccc(-c4ccc5c(c4)OCO5)cc23)c1 21.5%, CCCn1c(=O)c2[nH]c(C3CCCC3)nc2n(CCC)c1=O, Cc1cccc(C)c1NC(=O)c1cc(S(N)(=O)=O)c(Cl)cc1O 14.9%, COCC(=O)Nc1cc(C(=O)N2CC3CC4CC(C3)CC2C4)c2c(c1)nc(-c1ccncc1)n2C -7.35%, CCNc1ncc2nc(-c3ccc(OC)cc3)c(=O)n(Cc3ccc(F)cc3)c2n1 10.3%, CC(=O)N[C@@H](CSC/C=C(\C)CC/C=C(\C)CC/C=C(\C)CCC=C(C)C)C(=O)O 32.8% [at 15.3 µM], COc1ccc(C(=O)c2coc3ccc(O)cc23)cc1 9.11%, O=C(CCNNC(=O)c1ccncc1)NCc1ccccc1, CN(Cc1ccco1)c1ncncc1-c1ccoc1 -7.65%, CCC(=O)c1ccc2c(c1)N(CCCN(C)C)c1ccccc1S2, Cc1ccccc1N1CCN(CCc2nnc3n2CCCC3)CC1 26.9%, Cc1noc(C)c1-c1cc(N(C)C)ncn1 17.9%, Cc1nc2ccccn2c(=O)c1CCN1CCC(C(=O)c2ccc(F)cc2)CC1, CC1(C)C2(Cl)C(Cl)C(Cl)C(Cl)(C(Cl)Cl)C1(Cl)C2Cl (stereo unspecified) 19.7%, Cc1cnc(CNc2ncncc2-c2ccc(N(C)C)cc2)cn1 -3.8%, O=C(Nc1ccc(Cl)cc1Cl)[C@@H]1CC=C[C@@H]2CCN(C3CCCCC3)C(=O)[C@@H]21 -5.66%, Nc1nc(N)c(N=O)c(OCC2CCCCC2)n1 6.1% [at 75.8 µM], CO[C@@H]1[C@H](OC(=O)/C=C/C=C/C=C/C=C/C(=O)O)CC[C@]2(CO2)[C@H]1[C@@]1(C)O[C@@H]1CC=C(C)C 13.9%, NC(=O)c1cnccn1, O=c1c(-c2ccc(F)cc2)nc2cnc(Nc3ccccc3)nc2n1C[C@H]1CCCO1 8.12%, Cc1c(-c2ccc(Cl)cc2)noc1C1CCN(CCc2ccccc2)CC1, CC(C)(C)CC(C)(C)c1cc(Cc2cc(C(C)(C)CC(C)(C)C)cc(-n3nc4ccccc4n3)c2O)c(O)c(-n2nc3ccccc3n2)c1 13.5%, Cc1nc2cnc(Oc3cccc(Cl)c3)nc2n(Cc2ccc(F)cc2)c1=O 4.32%, CC(=O)c1ccc[nH]1 -15.2%, CN1[C@@H]2CC(OC(=O)[C@H](CO)c3ccccc3)C[C@H]1[C@@H]1O[C@@H]12 (stereo partly specified), CCNc1ncc2nc(-c3ccc(Cl)cc3)c(=O)n(C3CC3)c2n1 19%, CCC1CN(Cc2cccc3nccnc23)Cc2cc(OC)ccc2O1 (stereo unspecified) 11.3%, O=C(c1cnccn1)N1CCC2(CCCN(c3ncccn3)C2)CC1 -5.2%, COCC(=O)N1CCC2(CC1)CN(C(=O)Nc1ccc(OC)cc1)C2 8.27%, COc1ccc2c3c1OC1C[C@@H](O)C=C[C@@]31CCN(C)C2 (stereo partly specified) 16.1%, Cc1cc(C(=O)NCC2CCC3(CCN(Cc4ccc(-c5ccccc5)cc4)CC3)O2)n(C)n1 (stereo unspecified) -4.77%, CC/C(=C/c1ccccc1OC)c1cc(-c2ccccc2)cc2oc3ccccc3c12 -10.5%, COc1cccc(-c2nccc(NCc3cccc(C)c3)n2)c1 -14.8%, COc1ccc(-c2nc3cnc(N4CCOCC4)nc3n(CCc3ccccc3)c2=O)cc1 25.4%, C=CCN([C@H](C(=O)OC)C(C)C)S(=O)(=O)CCNCc1ccccc1 12.7%, COCCn1c(=O)c(-c2ccccc2)nc2cnc(Oc3cccc(Cl)c3)nc21 5.44%, COc1ccc(CN2[C@@H](CC(=O)O)c3cc(F)ccc3S2(=O)=O)cc1 6.33%, CC1=C(C(=O)OCc2cc(C)on2)N2C(=O)[C@@H](NC(=O)OCc3cc(C)on3)[C@H]2SC1 10.9%, COc1ccc([C@@H](C)C(=O)c2ccc(O)cc2O)cc1 -8.21%, Cc1cnnc2ccccc12 12.8%, CCCCCCCC(=O)OCC(O)CO (stereo unspecified) 20.4%, COc1ccc2c(c1)OCC(Cc1ccc(OC)c(OC)c1)C2O (stereo unspecified), CO[C@H]1[C@H](NC(=O)c2ccco2)c2ccccc2C12CCN(Cc1cnc(N(C)C)s1)CC2 15%, c1ccc(-c2nc[nH]c2-c2ccccc2)cc1 14.4%, Cc1c(C(=O)NCC(C)(C)N2CCOCC2)cnn1-c1nccc(-c2cccs2)n1 13.5%, [O-][N+](=Nc1ccccc1)c1ccccc1 9.43%, O=C(C[n+]1cccc2ccccc21)c1ccc(F)cc1 26%, O=C1CCN(Cc2cccc(C(F)(F)F)c2)CCN1Cc1ccccn1 2.45%, NCCC(=O)N[C@H](Cc1cnc[nH]1)C(=O)O 7.46%, NC(Cc1cc(I)c(Oc2ccc(O)c(I)c2)c(I)c1)C(=O)O (stereo unspecified) 23.5%, C[C@@H]1CCC(=O)N(CC[C@H](N=[N+]=[N-])c2ccccc2)CC1 -9.74%, C=C(C)C1COc2cc3oc(=O)ccc3cc2O1 (stereo unspecified) 17.1%, Cc1nn(C)cc1CN1CCOc2ccc(CN3CCC(Oc4cccnc4)CC3)cc2C1 1.46%, Oc1ccc(-c2nc(-c3ccc(F)cc3)c(-c3ccncc3)[nH]2)cc1, COc1cccc(-c2cncnc2NC2CCNCC2)c1 15.1%, CCCCCc1ccc(-c2cn(Cc3ccc(C(=O)c4ccccc4)cc3)nn2)cc1 -9.22%, O=c1n(CCCN2CCN(c3cccc(Cl)c3)CC2)nc2ccccn12, COC(=O)C[C@H]1c2cc(C(F)(F)F)ccc2S(=O)(=O)N1C1CCCC1 5.73%, CC(=O)NCCCCCC(=O)O 12.5%, O=C(O)c1cc(=O)[nH]c(=O)[nH]1 3.23%, O=c1c(-c2ccc(Cl)cc2)nc2cnc(Nc3ccccc3)nc2n1C1CC1 14.9%, c1csc(CNc2nc(-c3ccc4c(c3)OCO4)nc3ccccc23)c1 -11.7%, O=C(c1cc(-c2ccccc2)on1)N1CCOc2ccc(CN3CCN(c4ccccn4)CC3)cc2C1 6.85%, COc1cccc(Cn2c(=O)c(C)nc3cnc(Nc4cccc(OC)c4)nc32)c1 3.16%

Potency, active:
CC(=O)N[C@@H](CSC/C=C(\C)CC/C=C(\C)CC/C=C(\C)CCC=C(C)C)C(=O)O 56.2 µM, O=c1c(-c2ccccc2)coc2cc(O)cc(O)c12 79.4 µM, NC(C(=O)O)c1cc(O)c(Cl)c(O)c1 (stereo unspecified) 56.2 µM

Reference: PubChem BioAssay AID1645882 (National Center for Advancing Translational Sciences (NCATS), 2021)
